# Assay results reported in PubChem BioAssay AID624296 (National Center for Advancing Translational Sciences (NCATS), 2012).
# Among all 350,000 compounds or so, about 9,900 (2.8%) were called active. The shares of active, inactive and inconclusive entries below differ from those in the screen. The call rests on the fitted dose curve; in most records, active means well fitted activation curve with a large enough effect; inconclusive means small, poorly fitted or top-dose-only effect; inactive means no such curve, though single readings can be large or run the other way. Potencies of inconclusive entries are left out as doubtful fits.
# Assay: A quantitative high throughput screen for small molecules that induce DNA re-replication in MCF 10a normal breast cells. Further: nearly all actives have a fitted effect of over 50% in size.
# Conditions: MCF 10A DNA re-replication, Hoechst nuclear intensity, 48 h; series mostly up to 46.1 µM
# Potency means the concentration at half of the fitted maximal effect; tags describe the fitted curve by direction and shape.
row,SMILES,Potency
1,Cc1ccc(OCC(=O)OCC(=O)c2cccc([N+](=O)[O-])c2)cc1C,"inconclusive [activator, single point]"
2,COc1ccccc1N(CC(=O)NCCSCc1ccc(C)cc1)S(=O)(=O)c1ccccc1,inactive
3,CN(CC(=O)Nc1ccccc1C(=O)NC1CC1)Cc1cccs1,inactive
4,COc1ccc(-c2nn(-c3ccccc3)cc2/C=N/Nc2cccc(C(=O)O)c2)cc1,"inconclusive [activator, single point]"
5,Cn1c(SCC(=O)N2c3ccccc3Sc3ccc(Cl)cc32)nnc1-c1ccco1,"inconclusive [activator, partial curve, poor fit]"
6,COc1ccccc1C1(O)C(=O)Nc2ccc(C)cc21 (stereo not drawn),inactive
7,CC1(C(=O)OCC(=O)c2c[nH]c3ccccc23)CC1(Cl)Cl (stereo not drawn),"inconclusive [activator, partial curve, poor fit]"
8,CCN(CC)S(=O)(=O)c1ccc(NC(=O)CSc2ncnc3ccccc23)cc1,"inconclusive [activator, single point]"
9,CN(C)CCOc1ccccc1-c1ccccc1,inactive
10,CCOc1ccccc1N(CC(=O)O)S(=O)(=O)c1ccccc1,"inconclusive [activator, single point]"
11,COc1ccc(-n2cc(-c3ccc(Cl)cc3)[nH]c2=S)cc1,inactive
12,COc1cc(C(=S)N2CCCCC2)ccc1O,inactive
13,CCCCc1c(C)c(C#N)c2[nH]c3ccccc3n2c1=O,active: 18.4 µM
14,C/C(=N/NC(=O)CNC(=O)c1ccc2c(c1)OCO2)c1ccc2c(c1)CCCC2,"inconclusive [activator, single point]"
15,CC(=O)Nc1ccc(NC(=O)c2ccc(NS(=O)(=O)c3cc(C(C)(C)C)cc(C)c3C)cc2)cc1,active: 18.4 µM
16,O=C1NC(=S)SC1=Cc1cccs1,"inconclusive [activator, single point]"
17,Oc1ccc(CNc2ccc(F)cc2)c2cccnc12,active: 23.1 µM
18,CCOc1ccc(-n2c(C)c(C(C)=O)c3cc(OC(C)=O)ccc32)cc1,inactive
19,Cc1cc(C(F)(F)Cl)n2ncc(-c3ccccn3)c2n1,inactive
20,CCOC(=O)c1c(C)c[nH]c1C,inactive
21,O=C(CCSc1ccccc1)N1CCN(c2ccccc2)CC1,"inconclusive [activator, single point]"
22,O=C(O)CSc1cccc[n+]1[O-],inactive
23,COc1ccc(S(=O)(=O)N(C)C)cc1NC(=O)CSC(C)C(=O)Nc1cc(C)on1 (stereo not drawn),inactive
24,CCN(CC)C(=O)[C@H]1CC(CC(=O)NCc2cccc(C(F)(F)F)c2)C(=O)N2CCc3c([nH]c4ccc(OC)cc34)[C@]12C (stereo partly drawn),inactive

row,SMILES,Potency
1,COc1ccc(-c2ccc(C#N)c(SCC(=O)OCc3ccccc3)n2)cc1OC,active: 9.2 µM
2,Cc1c(-c2ccc(F)cc2)nc(N)c(C#N)c1-c1ccco1,"inconclusive [activator, single point]"
3,CC(C)NC(=O)c1cc(-c2cccs2)nc2ccccc12,inactive
4,Cc1nc([N+](=O)[O-])c(Br)n1CC(=O)c1ccc2ccccc2c1,active: 0.651 µM
5,O=C(NCc1ccccc1)c1onc(CSc2ccc(Cl)cc2)c1C(=O)NCc1ccccc1,"inconclusive [activator, partial curve, poor fit]"
6,O=C(N/N=C/c1ccccc1[N+](=O)[O-])c1cccs1,inactive
7,Cc1ccc2c(c1)CCCN2C(=O)CCc1nc2ccccc2c(=O)[nH]1,"inconclusive [activator, full curve, poor fit]"
8,CCn1c(SCc2ccccc2Cl)nc2ccccc21,"inconclusive [activator, single point]"
9,Cc1ccc2nc3c(cc(C(=O)NCCc4ccccc4)c(=N)n3CCCN3CCOCC3)c(=O)n2c1,active: 4.61 µM
10,O=C(NCCc1ccccc1F)c1cccc2cccnc12,"inconclusive [activator, single point]"
11,CCc1cc2c(COC(=O)c3cccc(NS(C)(=O)=O)c3)cc(=O)oc2cc1O,active: 9.2 µM
12,Clc1ccc2c(NCCNC3CCCCC3)ccnc2c1,"inconclusive [activator, partial curve, poor fit]"
13,Cn1c(=O)c(C(=O)CSc2ccccc2)c(N)n(Cc2ccccc2)c1=O,"inconclusive [activator, single point]"
14,O=C(Cn1nnc(-c2ccccc2Cl)n1)N/N=C/c1ccc(-c2cccc(Cl)c2)o1,"inconclusive [activator, full curve, poor fit]"
15,COC(=O)C(CC(C)C)NC(=O)C(Cc1ccccc1)NC(=O)C1CCCN1C(=O)OC(C)(C)C (stereo not drawn),inactive
16,COc1ccc(CCNc2cc(C)nc3c(-c4ccc(Cl)cc4)cnn23)cc1OC,"inconclusive [activator, full curve]"
17,COC(=O)c1ccc(N=c2sc(C(=O)OC)cc(=O)n2C)cc1,"inconclusive [activator, partial curve, poor fit]"
18,COc1ccc(CN(C)C(=O)COC(=O)c2c(C)nn(-c3ccc(F)cc3)c2Cl)cc1,inactive
19,O=Cc1cc(OCc2ccccc2)ccc1[B-](F)(F)F,"inconclusive [activator, single point]"
20,O=C1C=C(Nc2ccccc2O)c2ccccc2C1=O,"inconclusive [activator, single point]"
21,COc1cccc(CN2CCC(C(=O)Nc3ccc(Oc4cccnc4)cc3)CC2)c1,"inconclusive [activator, single point]"
22,CN(CC(=O)Nc1cccc(F)c1)CC(=O)Nc1ccccc1-c1ccccc1,"inconclusive [activator, single point]"
23,CC12CCC(=O)N1C(C(=O)Nc1nc3ccc(Cl)cc3s1)CS2 (stereo not drawn),"inconclusive [activator, single point]"
24,COc1ccc(-c2n[nH]c(=S)n2/N=C/C=C/c2ccccc2OC)cc1,active: 4.61 µM
